Consider 15 sequences from the supplement of paper PMC7826260.

This is one part of the list. Each Rep nickase domain was tested in vitro on the same pool of single strands (3 µM enzyme, 1 h, 37 °C); shown is the middle of each 90-letter strand. Uncut reads are compared with the no-enzyme pool on a log2 scale; more negative means more cut, near 0 not cut, and no call is made. The scaling is to total reads, so uncut sequences can rise above 0 when many others are cut.

Assay in all cases: uncleaved DNA left, log2 of reads against the no-enzyme library (log2 ratio); higher = less cleavage (more negative = more Rep cleavage of the k-mer); sequences stand for … in CTCGTCCG…ACCGGAGA
Experiment [1] has as its system T1, Rep nickase domain of Muscovy duck circovirus.
T1 sequence (Rep 1-111, printed without the tag): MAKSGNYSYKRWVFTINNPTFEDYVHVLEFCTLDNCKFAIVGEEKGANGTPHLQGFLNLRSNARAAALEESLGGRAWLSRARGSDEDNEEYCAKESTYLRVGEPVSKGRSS
The method, then:
(§1)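 A pool of 90-nt single-stranded DNAs with seven random bases just before the constant AC of the nick site (name = the seven bases) was cut by 3 µM recombinant His6-SUMO-tagged Rep nickase domain (300 nM DNA, 50 mM HEPES pH 8.0, 50 mM NaCl, 1 mM MnCl2, 1 h, 37 °C, three replicates). Uncut DNA was amplified and sequenced.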

Experiment [2] concerns T2, Rep nickase domain of banana bunchy top virus.
T2 sequence (Rep 1-94, printed without the tag): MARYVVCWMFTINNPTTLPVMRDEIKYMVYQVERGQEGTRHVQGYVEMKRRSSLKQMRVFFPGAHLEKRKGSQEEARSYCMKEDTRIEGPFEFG
On the procedure: as §1
Experiment [3] relates to T3, Rep nickase domain of cabbage leaf curl virus.
T3 sequence (Rep 1-116, printed without the tag): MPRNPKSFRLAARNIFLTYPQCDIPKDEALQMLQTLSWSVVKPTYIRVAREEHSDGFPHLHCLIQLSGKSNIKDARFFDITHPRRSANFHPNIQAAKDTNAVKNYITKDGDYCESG
The method, then: as §1
Experiment [4] concerns T4, Rep nickase domain of chickpea chlorotic dwarf virus.
T4 sequence (Rep 1-124, printed without the tag): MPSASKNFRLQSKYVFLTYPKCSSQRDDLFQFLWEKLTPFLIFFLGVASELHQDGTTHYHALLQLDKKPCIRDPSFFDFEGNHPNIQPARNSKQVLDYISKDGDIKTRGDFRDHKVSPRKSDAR
On the procedure: as §1
Experiment [5] deals with T5, Rep nickase domain of faba bean necrotic yellows virus.
T5 sequence (Rep 1-98, printed without the tag): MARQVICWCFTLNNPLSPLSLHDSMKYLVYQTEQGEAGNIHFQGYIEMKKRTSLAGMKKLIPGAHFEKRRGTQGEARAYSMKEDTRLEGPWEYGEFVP
On the procedure:
as §1

Experiment [6] relates to T6, Rep nickase domain of maize striate mosaic virus.
T6 sequence (Rep 1-117, printed without the tag): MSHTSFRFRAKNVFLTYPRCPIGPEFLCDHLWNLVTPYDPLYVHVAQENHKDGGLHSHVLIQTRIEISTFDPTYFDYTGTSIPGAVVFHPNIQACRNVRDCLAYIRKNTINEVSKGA
On the procedure: as §1
Experiment [7] has as its system T7, Rep nickase domain of porcine circovirus 2.
T7 sequence (Rep 2-116, printed without the tag): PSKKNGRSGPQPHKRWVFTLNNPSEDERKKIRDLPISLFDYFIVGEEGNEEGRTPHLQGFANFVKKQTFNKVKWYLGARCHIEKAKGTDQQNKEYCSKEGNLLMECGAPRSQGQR
On the procedure: as §1
The subject of experiment [8] is T8, Rep nickase domain of tomato golden mosaic virus.
T8 sequence (Rep 1-124, printed without the tag): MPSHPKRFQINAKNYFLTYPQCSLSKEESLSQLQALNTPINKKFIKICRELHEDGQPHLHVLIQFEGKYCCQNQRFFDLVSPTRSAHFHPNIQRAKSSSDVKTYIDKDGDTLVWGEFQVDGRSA
On the procedure: as §1
Experiment [9] has as its system T9, Rep nickase domain of tomato yellow leaf curl virus.
T9 sequence (Rep 1-136, printed without the tag): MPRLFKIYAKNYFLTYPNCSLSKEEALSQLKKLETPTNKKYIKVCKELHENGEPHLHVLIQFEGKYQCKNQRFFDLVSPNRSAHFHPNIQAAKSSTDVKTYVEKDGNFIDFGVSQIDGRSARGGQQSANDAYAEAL
On the procedure:
as §1

In experiment [10] the test system is T10, Rep nickase domain of wheat dwarf virus.
T10 sequence (Rep 1-137, printed without the tag): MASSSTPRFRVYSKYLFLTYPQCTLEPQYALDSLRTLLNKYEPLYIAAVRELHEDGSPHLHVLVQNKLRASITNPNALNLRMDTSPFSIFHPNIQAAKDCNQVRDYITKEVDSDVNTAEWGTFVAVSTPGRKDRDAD
The method, then:
as §1

In the case of ACCGGGA, the “uncleaved DNA left (log2)” value worked out at 0.107 in experiment [1]; 0.00564 in experiment [2]; 0.692 in experiment [3]; 1.01 in [4]; 0.0368 in [5]; 1.68 in [6]. The “uncleaved DNA left (log2)” value in [7] is 0.149; in [8], 0.0376; in [9], -0.105; in experiment [10], 0.212.

Consider CGGCTGC, for which the “uncleaved DNA left (log2)” value was 0.0711 in [1]; -0.0418 in experiment [2]; 0.0157 in [3]; 0.537 in experiment [4]; -0.0346 in [5]; 1.52 in experiment [6]. The “uncleaved DNA left (log2)” value in experiment [7] came to 0.0947; in [8] it was 0.0455; in experiment [9] it was 0.00191; in [10] it was 0.0325.

For the sequence ATTATGG, the “uncleaved DNA left (log2)” value is 0.0129 in experiment [1]; -0.00472 in experiment [2]; -0.0491 in experiment [3]; 0.357 in experiment [4]; -0.0346 in experiment [5]; -0.532 in experiment [6]. Moreover, the “uncleaved DNA left (log2)” value in [7] is 0.106; in [8], 0.0802; in [9], -0.124; in experiment [10] it was -0.00234.

In the case of AATCGTT, the “uncleaved DNA left (log2)” value in [1] is -0.246; in experiment [2], -0.0898; in experiment [3] it was -0.684; in experiment [4], -2.84; in [5], 0.00866; in experiment [6], -1.01. The “uncleaved DNA left (log2)” value is -3.39 in [7], -0.189 in [8], -0.238 in experiment [9] and -0.165 in experiment [10].

In the case of GGCCATG, the “uncleaved DNA left (log2)” value in experiment [1] stood at 0.0822; in [2], 0.0624; in experiment [3], 0.422; in experiment [4], 1.16; in experiment [5], 0.0191; in experiment [6] it was 1.49. In addition, the “uncleaved DNA left (log2)” value in experiment [7] came to 0.127; in experiment [8] it was 0.0909; in experiment [9] it was 0.049; in experiment [10] it was 0.167.

CGCTGAC: the “uncleaved DNA left (log2)” value in experiment [1] is 0.144; in experiment [2], -0.0712; in experiment [3], 0.015; in [4], 0.575; in experiment [5] it was 0.0596; in experiment [6], 0.266. Also, the “uncleaved DNA left (log2)” value is 0.103 in [7], -0.0777 in experiment [8], 0.0424 in [9] and 0.0429 in experiment [10].

With GTGGGGT, the “uncleaved DNA left (log2)” value in experiment [1] is -0.0277; in [2], -0.129; in experiment [3] it was 0.448; in experiment [4], 1.21; in [5], -0.0563; in experiment [6] it was 1.74. Besides, the “uncleaved DNA left (log2)” value in experiment [7] was 0.121; in experiment [8], -0.00076; in [9], -0.0268; in experiment [10], -0.0399.

CGTATAT: the “uncleaved DNA left (log2)” value in [1] was -0.0531; in experiment [2], -0.0447; in experiment [3], 0.0268; in [4], -0.294; in experiment [5], -0.124; in experiment [6], -0.118. For the same sequence, the “uncleaved DNA left (log2)” value in experiment [7] was -0.772; in experiment [8], -0.179; in experiment [9] it was -0.0524; in experiment [10] it was -0.0415.

On to GTTATGA, for which the “uncleaved DNA left (log2)” value in experiment [1] is 0.00828; in [2], 0.0773; in [3], 0.25; in experiment [4], 0.809; in experiment [5] it was -0.0141; in [6] it was 1.73. Besides, the “uncleaved DNA left (log2)” value in [7] stood at 0.0362; in [8] it was 0.0501; in [9], 0.0245; in experiment [10], 0.104.

In the case of CTGCAGT, the “uncleaved DNA left (log2)” value in [1] is 0.176; in [2], 0.0625; in experiment [3], -0.514; in experiment [4] it was -0.568; in experiment [5], 0.259; in experiment [6], -0.949. Further, the “uncleaved DNA left (log2)” value in experiment [7] is 0.168; in [8], -0.0122; in experiment [9] it was 0.0539; in [10], -0.0379.

As to ATTCCCT, the “uncleaved DNA left (log2)” value in experiment [1] was -0.938; in [2] it was -0.311; in [3] it was -0.273; in [4] it was -2.17; in experiment [5], -0.121; in [6], -0.629. The “uncleaved DNA left (log2)” value was -3.31 in [7], -0.228 in experiment [8], -0.0852 in [9] and -0.184 in experiment [10].

GTGTAGG: the “uncleaved DNA left (log2)” value was 0.068 in experiment [1]; 0.0706 in [2]; 0.398 in experiment [3]; 1.05 in [4]; 0.0017 in experiment [5]; 1.23 in experiment [6]. For the same sequence, the “uncleaved DNA left (log2)” value in [7] was 0.123; in experiment [8], 0.161; in [9] it was 0.0504; in experiment [10] it was 0.126.

Consider ATGCGGT, for which the “uncleaved DNA left (log2)” value in [1] was 0.0704; in [2], -0.0645; in experiment [3], -0.394; in [4], -0.325; in [5], 0.0343; in experiment [6], -0.626. For the same sequence, the “uncleaved DNA left (log2)” value in experiment [7] was 0.0618; in [8], -0.111; in [9], 0.00985; in experiment [10] it was -0.112.

For the sequence TACGTGT, the “uncleaved DNA left (log2)” value in experiment [1] was -0.00146; in experiment [2], -0.14; in [3], -0.146; in experiment [4], -0.697; in experiment [5] it was -0.0302; in experiment [6] it was -0.156. For the same sequence, the “uncleaved DNA left (log2)” value in experiment [7] is -0.0588; in [8], -0.053; in experiment [9], -0.199; in experiment [10], -0.114.

Regarding GTCAAGA, the “uncleaved DNA left (log2)” value in experiment [1] amounted to 0.0281; in experiment [2] it was 0.116; in [3], 0.348; in [4] it was 0.922; in [5], 0.0713; in experiment [6] it was 1.47. Further, the “uncleaved DNA left (log2)” value in experiment [7] was found to be 0.126; in experiment [8], 0.178; in [9], 0.15; in experiment [10] it was 0.124.
